56 compounds from PMC4336329 (PLoS ONE, 2015) can be followed below.

In all, about 310,000 compounds went through this assay and about 2,200 (0.71%) showed an effect of 50% or more. Effects have a minus sign here. The list shows a part of the results.

The target of the assay is human ether-à-go-go-related gene (hERG) potassium channel (human, UniProt Q12809). Kind of assay: primary screen, population patch clamp on CHO cells stably expressing hERG.
Sequence of human ether-à-go-go-related gene (hERG) potassium channel (Q12809 whole entry, looked up): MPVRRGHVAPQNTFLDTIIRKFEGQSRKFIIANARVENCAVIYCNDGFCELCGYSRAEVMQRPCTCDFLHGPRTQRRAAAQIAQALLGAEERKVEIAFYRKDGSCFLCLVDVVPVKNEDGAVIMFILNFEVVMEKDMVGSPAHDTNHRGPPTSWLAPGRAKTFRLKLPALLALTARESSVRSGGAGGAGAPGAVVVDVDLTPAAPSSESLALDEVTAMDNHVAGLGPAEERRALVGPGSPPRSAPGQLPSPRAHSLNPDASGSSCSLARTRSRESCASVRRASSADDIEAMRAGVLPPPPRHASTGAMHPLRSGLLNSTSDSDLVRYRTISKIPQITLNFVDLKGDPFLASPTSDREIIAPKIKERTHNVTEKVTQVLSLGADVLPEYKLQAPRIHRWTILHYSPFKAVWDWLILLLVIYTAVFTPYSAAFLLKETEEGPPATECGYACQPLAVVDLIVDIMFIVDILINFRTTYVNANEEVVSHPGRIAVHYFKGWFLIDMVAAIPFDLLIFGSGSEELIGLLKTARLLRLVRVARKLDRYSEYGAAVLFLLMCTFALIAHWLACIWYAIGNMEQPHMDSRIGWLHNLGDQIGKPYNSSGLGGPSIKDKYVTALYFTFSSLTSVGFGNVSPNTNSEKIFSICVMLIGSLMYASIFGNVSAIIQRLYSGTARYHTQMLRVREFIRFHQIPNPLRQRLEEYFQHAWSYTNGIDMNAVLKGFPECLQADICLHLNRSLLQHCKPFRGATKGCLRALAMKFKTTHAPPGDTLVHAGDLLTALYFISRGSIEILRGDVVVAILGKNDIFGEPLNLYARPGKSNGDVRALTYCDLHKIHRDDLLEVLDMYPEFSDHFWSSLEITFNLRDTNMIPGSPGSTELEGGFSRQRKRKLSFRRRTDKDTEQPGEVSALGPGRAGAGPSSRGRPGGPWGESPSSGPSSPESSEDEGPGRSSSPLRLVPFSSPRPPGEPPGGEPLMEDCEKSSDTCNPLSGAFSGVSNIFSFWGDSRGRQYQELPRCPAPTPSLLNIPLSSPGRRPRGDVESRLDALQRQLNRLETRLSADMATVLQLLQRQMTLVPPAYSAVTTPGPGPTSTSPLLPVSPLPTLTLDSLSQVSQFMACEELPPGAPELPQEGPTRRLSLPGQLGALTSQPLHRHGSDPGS
As for `CCOc1cc(S(=O)(=O)NCCN2CCOCC2)c(C)cc1C`, the “hERG current change (%, negative = inhibition) at 1uM” value amounted to 16.5%. The value for `Cc1cc(NCc2ccccn2)n2nc(C)c(-c3ccccc3)c2n1` was 0.203%. On to `CC1CCCCN1C(=O)c1cccc(NC(=O)c2ccccc2)c1` (centres unmarked), for which the “hERG current change (%, negative = inhibition) at 1uM” value is given as 0.66%. The value for `Cc1ccc(/C=N/n2c(C)nnc2C)s1` was 1.77%.

Regarding `Cc1cccc(C(C)C)c1NC(=O)COC(=O)Cc1ccsc1`, the “hERG current change (%, negative = inhibition) at 1uM” value is 4.93%. Consider `COc1ccc(-c2cc3nc(-c4ccccc4)cc(N4CCC(O)CC4)n3n2)cc1`, for which the “hERG current change (%, negative = inhibition) at 1uM” value is listed as 1.7%.

As to `O=C(CSc1nnnn1-c1ccccc1)N1CCc2ccccc2C1`, the “hERG current change (%, negative = inhibition) at 1uM” value was -12.4%. In the case of `CCOc1ccc(NC(=O)c2ccc(OC)cc2)cc1`, the “hERG current change (%, negative = inhibition) at 1uM” value turned out to be 6.61%. For `O=S1(=O)CC/C(=N\O)c2ccccc21` the value was 16.6%.

Take `O=C(NCc1ccc2c(c1)OCO2)c1ccc(CN2CCc3ccccc3C2)cc1`: the “hERG current change (%, negative = inhibition) at 1uM” value worked out at 6.25%.

`O=C(/C=C/c1cccc(F)c1)N1CCN(c2ncccn2)CC1`: the “hERG current change (%, negative = inhibition) at 1uM” value stood at 12.4%. Take `CC(C)(Cc1ccccc1)/[N+]([O-])=C\c1ccccc1`: the “hERG current change (%, negative = inhibition) at 1uM” value is reported as 12.7%. As for `CCOc1ccccc1N=C1SC(CC(=O)Nc2ccc(OC)cc2OC)C(=O)N1CCC1=CCCCC1` (centres unmarked), the “hERG current change (%, negative = inhibition) at 1uM” value is on record as -0.403%.

`CC1C(=O)C(C)C(c2ccc(Br)cc2)NC1c1ccc(Br)cc1` (centres unmarked): the “hERG current change (%, negative = inhibition) at 1uM” value is listed as 16.7%. Regarding `CC(C)C(NC=C1C(=O)OC(C)(C)OC1=O)C(=O)O` (centres unmarked), the “hERG current change (%, negative = inhibition) at 1uM” value is listed as 12.2%.

As for `COc1ccc(C(C(=O)NC2CCCCC2)N(C(=O)c2sc(C)nc2C)c2ccc(OC)cc2)cc1` (centres unmarked), the “hERG current change (%, negative = inhibition) at 1uM” value was found to be 17.5%. `COc1ccc(OC)c(C(=O)c2ccc(C(=O)Nc3ccc(NC(C)=O)cc3)cc2)c1`: the “hERG current change (%, negative = inhibition) at 1uM” value came to 15.6%. For `CN(C)C(CNC(=O)Cc1c(Cl)cccc1Cl)c1ccccc1` (centres unmarked) the value was 8.65%; for `COc1ccccc1/C=C/C1C(C(=O)OCC(C)C)=C(C)N=C2SCCC(=O)N21` (centres unmarked), 9.17%.

Consider `CCN(CC)S(=O)(=O)c1cc(NC(=O)COC(=O)c2ccc(NC(=O)CC#N)cc2)ccc1C`, for which the “hERG current change (%, negative = inhibition) at 1uM” value was determined as 7.02%.

As for `CCCCCn1c(CCCNC(=O)CC)nc2ccccc21`, the “hERG current change (%, negative = inhibition) at 1uM” value is recorded as -52.3%. As for `COc1cc(NS(=O)(=O)c2ccc(NC(=O)c3ccc(S(=O)(=O)N4CCCCC4)cc3)cc2)ncn1`, the “hERG current change (%, negative = inhibition) at 1uM” value worked out at 19.6%.

As to `COc1ccc(NS(=O)(=O)c2ccc(OC)c(NC(=O)CCC3CCCCC3)c2)cc1`, the “hERG current change (%, negative = inhibition) at 1uM” value came to 13%.

As for `Cc1nc2oc(C(=O)c3ccc(Br)cc3)c(N)c2c2c1COC(C)(C)C2`, the “hERG current change (%, negative = inhibition) at 1uM” value is recorded as 18.1%. For `COc1ccc(C(=O)Nc2ccc(S(=O)(=O)Nc3nccc(C)n3)cc2)cc1`, the “hERG current change (%, negative = inhibition) at 1uM” value is on record as 15.8%. With `CS(=O)(=O)Nc1ccc(-c2cn3cccnc3n2)cc1`, the “hERG current change (%, negative = inhibition) at 1uM” value was determined as 0.474%. In the case of `COc1ccc2nc(C)cc(NCc3cccc(C(F)(F)F)c3)c2c1`, the “hERG current change (%, negative = inhibition) at 1uM” value amounted to 5.09%.

With `Cc1nnc(-c2cnn(-c3ccccc3)c2N)n1Cc1cccc(C(F)(F)F)c1`, the “hERG current change (%, negative = inhibition) at 1uM” value was 1.55%. On to `O=C(CCCCCN1C(=O)CCC1=O)Nc1ncn[nH]1`, for which the “hERG current change (%, negative = inhibition) at 1uM” value turned out to be 6.07%.

With `COc1cccc(Cn2c(Oc3ccccc3)nc3c2c(=O)n(C)c(=O)n3C)c1`, the “hERG current change (%, negative = inhibition) at 1uM” value was found to be 9.66%. With `O=C1COc2ccc(C(=O)CSc3nc4ccccc4c(=O)n3-c3ccc(Cl)c(Cl)c3)cc2N1`, the “hERG current change (%, negative = inhibition) at 1uM” value worked out at 13.3%. Turning to `Nc1nnc(SCC(=O)OCC(=O)Nc2ccc(Br)cc2F)s1`, the “hERG current change (%, negative = inhibition) at 1uM” value is listed as 12.2%. For `CCOC(=O)N1CCN(C(=O)CSCc2ccc(Cl)cc2)CC1`, the “hERG current change (%, negative = inhibition) at 1uM” value was -16.2%. The value for `O=c1oc(Nc2ccccc2F)nc2ccccc12` was 20.7%. For the compound `CN(C)c1ccc(N=Nc2nc3ccccc3n2C)cc1`, the “hERG current change (%, negative = inhibition) at 1uM” value came to 1.69%. For `Br.O=C(CN1CCCCC1)c1cccc(Br)c1` the value was 7.08%; for `CCN1/C(=N\N)c2cccc3cccc1c23`, 11.9%; for `CSCC[C@H](NC(=O)C1CCN(S(=O)(=O)c2ccc(C)cc2)CC1)C(=O)NCC1CCCO1` (some centres unmarked), -14.1%. For `O=C(Nc1nnc(C2CC2)s1)c1cccs1`, the “hERG current change (%, negative = inhibition) at 1uM” value was determined as 21.6%. For `Cc1cccc(NC(=S)NC2CC3C=CC2C3)c1` (centres unmarked), the “hERG current change (%, negative = inhibition) at 1uM” value was 9.63%. Consider `O=C(O)/C=C/c1cn(-c2ccccc2)nc1-c1ccc(-c2ccc([N+](=O)[O-])cc2)o1`, for which the “hERG current change (%, negative = inhibition) at 1uM” value is 11.4%. The value for `O=C(Cc1ccccc1[N+](=O)[O-])Nc1ccc2c(c1)OCCO2` was 18.2%; that for `COc1ccc(NC(=O)COc2ccc(N(C)S(=O)(=O)c3ccc(C)cc3)cc2)cc1` was 7.31%; that for `COc1ccccc1CNC(=O)c1ccc(CS(=O)(=O)c2ccccc2OC)o1` was -8.57%. For `CCOC(=O)CN1C(=O)N[C@@H](c2ccccc2)[C@@H](C(=O)OC)[C@H]1C`, the “hERG current change (%, negative = inhibition) at 1uM” value is listed as 11.2%. On to `COC(=O)c1ccc(Cl)c(NC(=O)CSc2ncn[nH]2)c1`, for which the “hERG current change (%, negative = inhibition) at 1uM” value was 10.7%. In the case of `Cn1c(SCC(=O)NNC(=O)Cc2ccccc2)nc2ccccc2c1=O`, the “hERG current change (%, negative = inhibition) at 1uM” value amounted to 6.65%. For `C=CCN(CC=C)S(=O)(=O)c1ccc(F)cc1`, the “hERG current change (%, negative = inhibition) at 1uM” value is reported as -2.89%.

As for `CCOc1cc(C(=O)NCc2ccc(F)cc2)ccc1OCC(=O)N1CCCCC1`, the “hERG current change (%, negative = inhibition) at 1uM” value is -0.748%. As for `O=C(CNC(=O)C12CC3CC(CC(C3)C1)C2)N/N=C\c1ccccn1`, the “hERG current change (%, negative = inhibition) at 1uM” value was -2.99%. As for `CCCc1cc(=O)[nH]c(SCC(=O)N2CCN(S(=O)(=O)c3ccc4ccccc4c3)CC2)n1`, the “hERG current change (%, negative = inhibition) at 1uM” value amounted to 11.2%. As for `CC(=O)c1ccc(NC(=O)Nc2cccc3ccccc23)cc1`, the “hERG current change (%, negative = inhibition) at 1uM” value is reported as 16.6%. Regarding `COC(=O)Cn1c(=O)c2c(nc3n2CCCN3Cc2ccccc2)n(C)c1=O`, the “hERG current change (%, negative = inhibition) at 1uM” value was determined as 6.16%. For `CCOC(=O)C1=C(CS(=O)(=O)c2ccc(F)cc2)NC(=O)NC1c1ccc(O)c(O)c1` (centres unmarked) the value was 17.4%. Consider `Cc1cc(C)c2nc(SCC(=O)NC(=O)c3cccn3C)cc(C)c2c1`, for which the “hERG current change (%, negative = inhibition) at 1uM” value was found to be 3.51%.

For `COC(C[C@H]1O[C@@H]1C(=O)[C@H](C)OCc1ccccc1)OC`, the “hERG current change (%, negative = inhibition) at 1uM” value is reported as 21.7%.
